Assay results from PubChem BioAssay AID1794842 (National Center for Advancing Translational Sciences (NCATS), 2023).
Screen size: about 2,800 compounds; fewer than 10 were called active. Calls follow the shape of the dose curve; as a rule, active = well fitted curve in the direction sought with a large enough effect; inconclusive = small, poorly fitted or top-dose-only effect, or another doubt; inactive = no such curve, though single readings can be large or run the other way. This is one part of the list.

Target: Metallo-beta-lactamase type 2 (Klebsiella pneumoniae) (UniProt C7C422)
UniProt C7C422, sequence (C7C422 whole entry, looked up): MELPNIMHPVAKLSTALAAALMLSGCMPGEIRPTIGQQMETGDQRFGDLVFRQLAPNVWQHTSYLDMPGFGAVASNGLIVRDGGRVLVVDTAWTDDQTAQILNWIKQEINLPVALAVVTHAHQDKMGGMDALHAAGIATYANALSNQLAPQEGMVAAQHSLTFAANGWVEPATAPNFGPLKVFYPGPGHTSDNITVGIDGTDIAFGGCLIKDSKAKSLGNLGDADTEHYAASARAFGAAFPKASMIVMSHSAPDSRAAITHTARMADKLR
Assay: qHTS to identify inhibitors of the New Delhi Metallo-beta-lactamase (NDM): Meropenem screen against the machine-based learning selections. Also: % of control where 0% means no effect.
Conditions: Purified NDM-1, meropenem hydrolysis, absorbance 300 nm; at 38.4 µM (top of the series) unless noted
Excerpt: Assay Submitter (PI): James Inglese Ph.D., Patricia Dranchak Ph.D., Mahesh Aitha Ph.D. Assay Development and Screening Technology Laboratory (ADST) National Center for Advancing Translational Sciences (NCATS), Rockville, MD National Institute of Health (NIH), Bethesda, Maryland The metallo-beta-lactamases (MBL) are a main antibiotic resistance mechanism evolved by bacteria. There is an urgent clinical need for MBL inhibitors to mitigate this growing threat. To support a machine-based learning study, qHTS has been used to experimentally test inhibitors identified by prediction tools.
PROTOCOL TABLE (as described by Inglese et al., 2007) SEQUENCE No. (e.g., 1, 2, 3, etc.); […] (e.g., enzyme, Incubation, Reagent, etc.); VALUE; DESCRIPTION Primary Screen 1; NDM-1; 4 uL of 3 nM enzyme [2 nM final] in 50 mM HEPES (pH 7.0), 1 uM […], 0.01% Tween20; Use BioRaptr to dispense into two sets of Aurora black, clear bottom high base 1536-well plates 2; Compounds; 23 nL; Use Pin Tool (Wako) to transfer DMSO control and library compounds in DMSO 3; Incubate; >30 min 4a; Reagent; 2 uL of 50 uM nitrocefin [16.7 uM final] to one set of assay plates 4b; Reagent; 2 uL of 150 uM meropenem [50 uM final] to second set of assay plates 5a; Incubate; 15 min 5b; Incubate; 30 min 6a; Detector; Absorbance at 485 nm (bandwidth = 5 nm, 25 flashes/well) on Tecan Infinity 6b; Detector; Absorbance at 300 nm (bandwidth = 5 nm, 25 flashes/well) on Tecan Infinity NOTES (numbers refer to sequence above) 1; Column 1 of each plate received assay buffer without enzyme and columns 2-48 received enzyme for a final assay concentration of 2 nM. 2; Control plate contained DMSO in columns 1, 2, 3, and 4. 3; Compound interaction with enzyme. 4; Nitrocefin and meropenem substrates were prepared in the same assay buffer as step 1 for a final assay concentration of 16.7 uM and 50 uM, respectively, and added to all wells across respective sets of assay plates. 5; Default reader settings were applied for absorbance read at 485 nm (nitrocefin) or 300 nm (meropenem), bandwidth = 5 nm, 25 flashes/well. References: Inglese J, Shamu CE, Guy RK. 2007. Reporting data from high-throughput screening of small-molecule libraries. Nat Chem Biol. doi:10.1038/nchembio0807-438 Yasgar A, Shinn P, Jadhav A, Auld D, Michael S, Zheng W, Austin CP, Inglese J, Simeonov A. 2008. Compound Management for Quantitative High-Throughput Screening. J Lab Autom 13:79 - 89. doi:10.1016/j.jala.2007.12.004

Activity change, negative = inhibition, inactive:
Cc1ccc(S(=O)(=O)N2CCCC(Cn3c(C)nc4cccnc43)C2)cc1Cl (configuration not stated) -3.41%, Cn1cnc(C(=O)N2CCC(OC3CCN(S(C)(=O)=O)CC3)CC2)c1 52.3%, CN1C[C@@H](NC(=O)c2cccnc2)C[C@H]1c1nc(-c2ccncc2)no1 3.11% [at 57.5 µM], CCC[C@@H]1CN(C(=O)c2ccc(OC)o2)C[C@H]1C(=O)O 18.2%, CCCS(=O)(=O)N1CCC(N2CCCC(C(=O)N3CCOCC3)C2)CC1 (configuration not stated) 0.988%, O=C(Nc1cccc(F)c1)C1CCN(C(=O)N2CC3CC(C2)[C@H]2CCCC(=O)N2C3)CC1 (some centres not stated) 2.72%, COc1ccc(C(=O)N[C@@H]2CN(C(=O)Nc3ccccc3)CCC[C@H]2O)cc1 -1.35% [at 57.5 µM], Cc1noc2c(-c3cccc(CO)c3)cc(-c3ccccc3)nc12 12.2% [at 57.5 µM], O=C(O)c1ccnc(-c2ccnc(NCC(O)c3ccccc3Cl)n2)c1 (configuration not stated) 2.38%, CC1(COc2cccnc2)COc2ccc(C(=O)Nc3ccc4[nH]ccc4c3)cc2N1 (configuration not stated) 16.2% [at 57.5 µM], Clc1cccc(Nc2cc3c(cn2)CN(Cc2cccnc2)CCN3)c1 1.21% [at 57.5 µM], O=C1NCCCc2[nH]c(-c3csc(-c4cnccn4)n3)nc21 8.44%, c1ccc(-c2ccc3ncc(Nc4ccccn4)n3n2)cc1 16.5% [at 76.7 µM], Cc1cc(CNC(=O)[C@@H]2CCC[C@@H](NC(=O)c3ccc(C#N)cc3)CN(C)C(=O)C2)no1 0.691%, COc1cc(-c2nc3cc4[nH]c(=O)[nH]c4cc3[nH]2)cc(OC)c1O 0.965%, O=C(COc1ccccc1)N1CCCC(Nc2ccc(F)cc2)C1 (configuration not stated) 0.919%, CSc1cccc(NC(=O)Cn2c(N3CCOCC3)nc(C)cc2=O)c1 8.23%, O=C(NC1CCCCCC1)c1ccc2c(c1)CC(=O)N2Cc1ccc(F)cc1 1.58%, COc1ccc(C(=O)N[C@H]2C[C@H]3C(=O)Nc4ccc(-c5ccsc5)cc4C(=O)N3C2)cc1 -3.03%, Cc1ccccc1-c1[nH]nc2ncc(-c3ccccc3O)nc12 0.134% [at 57.5 µM], O=C1Nc2ccc(-c3ccc(Cl)cc3)cc2C(=O)N2CC[C@H](NS(=O)(=O)c3cccs3)C[C@@H]12 1.65%, OCc1cccc(-c2cc3c(cn2)CN(CCc2ccccc2)CCN3)c1 52.4% [at 57.5 µM], O=C(CCc1ccccc1)N1CCNc2cnc(Nc3ccc(-n4ccnc4)cc3)nc2C1 26.1%, CCCN(C)C(=O)CC1COCCN1C(=O)Nc1cccc(SC)c1 (configuration not stated) 1.9%, Cc1ccccc1[C@H]1C[C@@H](O)[C@@H](O)[C@@H]1NS(C)(=O)=O 1.14% [at 76.7 µM], Cc1cc(-c2cnc3[nH]cc(CC(=O)NCc4cccnc4)c3c2)ccn1 3.65% [at 57.5 µM], O=C(Cc1ccc(Cl)cc1)N[C@H]1[C@H](O)[C@H](O)C[C@@H]1c1cccnc1 0.0188% [at 57.5 µM], CCn1cnnc1CC1CCCN(S(=O)(=O)c2ccccc2C)C1 (configuration not stated) -0.103%, COCc1cn(C[C@H]2C[C@@H](NC(=O)Nc3cccnc3)[C@H](O)[C@@H]2O)nn1 57.5% [at 57.5 µM], OC(c1cccc(C(F)(F)F)c1)c1nc(Nc2ccc3c(c2)OCO3)n[nH]1 (configuration not stated) -0.987% [at 57.5 µM], CC1(CCCCc2ccccc2)COc2ccc(C(=O)NC3CCC(O)CC3)cc2N1 (configuration not stated) 1.11% [at 57.5 µM], CC(=O)Nc1ccc(C2(C(=O)NCc3cccc(F)c3)CCC2)cc1 1.92%, Cc1ccccc1-c1cnc2[nH]cc(CC(=O)Nc3ccccc3)c2c1 3.19% [at 57.5 µM], CC(=O)Nc1ccc(CN2CCC(N3CCCCCC3=O)CC2)cc1 0.422%, Cc1cc(-c2cnc3[nH]cc(CC(N)=O)c3c2)ccn1 10.9% [at 76.7 µM], O=C(c1cccc(F)c1)N1CCC(Cc2nc(C3CCOCC3)no2)CC1 -2.06%, O=C(Cc1c[nH]c2ncc(-c3ccc(F)cc3)cc12)NCc1cccnc1 5.98% [at 57.5 µM], CC(C)CC(=O)N1CCc2ccc(S(=O)(=O)N(C)Cc3nccs3)cc2C1 0.206%, O=C(c1ccccn1)N1CCCC2(C1)Nc1cccnc1NC2=NC1CCCC1 (configuration not stated) 27.1%, CC(C)C(=O)N1CCC(Oc2cccnc2)C1 (configuration not stated) 1.99%, O=C(C1CCCC1)N1CCOC[C@H](Oc2ccc(C(F)(F)F)cc2)C1 0.152% [at 57.5 µM], CN(CCCNC1CCC2(CCNCC2)CC1)c1ccccc1 53.9%, CO[C@@H]1COCC[C@H]1NC(=O)CCCn1nnc(-c2ccc(F)cc2)n1 -0.65%, CN(CC1CCOCC1)S(=O)(=O)Cc1cccc(Cl)c1 -0.593%, CS(=O)(=O)N1CCCCCNC(=O)CC1c1ccccc1 (configuration not stated) -4.34%, COc1ccc(C(=O)N[C@@H]2CN(C(=O)Nc3ccc(OC(F)(F)F)cc3)CCC[C@H]2O)cc1 1.33%, COCC(=O)N1CCc2nc(N(C)CCc3ccncc3)[nH]c(=O)c2CC1 1.22%, COCCNC(=O)CC[C@]12CC[C@](C)(O)C[C@H]1C(C)(C)C[C@@H]2NC(=O)CC(C)(C)C -2.32% [at 57.5 µM], C[C@]1(O)CCN(C(=O)c2ccc3c(c2)CCCC3)C[C@@H]1O -1.99%, Cn1nc(C2CCN(C(=O)c3nccc4ccccc34)CC2)c2c1CCOC2 -0.253%, C#CCNC(=O)[C@H]1O[C@H](CCN2CCOCC2)CC[C@@H]1O 1.56% [at 57.5 µM], COc1ccc2[nH]c(C[C@@H]3C[C@@H](C(C)C)[C@H](CNCc4ccccc4O)C=C3C)nc2n1 6.61% [at 57.5 µM]
